Assay results from PubChem BioAssay AID588855 (National Center for Advancing Translational Sciences (NCATS), 2011).
Among all 410,000 compounds or so, about 5,000 (1.2%) were called active. Inconclusive results, whose numbers are uncertain, are shown with a selection of clear calls. Calls come from the whole dose curve; as a rule, active = well fitted inhibition curve with a large enough effect; inconclusive = small, poorly fitted or top-dose-only effect; inactive = no such curve, though single readings can be large or run the other way. Potencies of inconclusive entries are doubtful fits and often do not repeat.

test: qHTS for Inhibitors of TGF-b; conditions: HepG2 CAGA-GFP TGF-b/SMAD3 reporter, GFP fluorescence, 18 h, TGF-beta stimulated, 500 pg/mL final; series mostly up to 46.1 µM; activity, negative = inhibition: at the top concentration; note: nearly all actives have a fitted effect of over 65% in size
In short: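 Inhibition of TGF-beta-driven CAGA-GFP reporter expression in HEPG2 cells is measured by cellular GFP fluorescence after 18 h stimulation with 500 pg/mL recombinant TGF-beta in 1% FBS medium at 37 degrees C.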
% is set by controls: 0 for no effect and ±100 for the full control effect; potency is the fitted concentration of half-maximal effect; tags give direction and shape of the fitted curve.

With `CCCc1cc(=O)n2[nH]c(-c3ccco3)nc2n1` as the compound, how does the “activity, negative = inhibition” value read?
Its value is inactive: -4.65%.

For `CCCCN(C(=O)c1ccccc1OCc1ccc(F)cc1)c1c(N)n(CCC)c(=O)[nH]c1=O`, which “activity, negative = inhibition” value is on record?
Its value is inactive: 0%.

With `COC(=O)C1=C(C)N(Cc2ccccc2)C(=NCc2ccc3c(c2)OCO3)N[C@H]1c1ccccc1` as the compound, how does the Potency read?
Its Potency is inconclusive: 0.224 µM [inhibitor, full curve, poor fit].

With `Cc1ccc(-c2ccc(C(=O)NCc3ccccc3)o2)c2ccccc12` as the compound, how does the Potency read?
The Potency was inconclusive: 22.4 µM [inhibitor, single point].

With `COc1ccc(C(NC(=O)/C=C/c2ccco2)c2ccc(OC)cc2)cc1` as the compound, how does the Potency read?
The Potency was inconclusive: 4.47 µM [inhibitor, partial curve, poor fit].

For `NC(=O)c1sc2nc3c(c(-c4ccc(Cl)cc4)c2c1N)CCCC3`, which Potency is on record?
The Potency was inconclusive: 10 µM [inhibitor, partial curve, poor fit].

Which Potency does the source give for `c1csc(CCNc2ncnc3sc4c(c23)CCC4)c1` here?
The Potency was inconclusive: 22.4 µM [inhibitor, partial curve, poor fit].

Which “activity, negative = inhibition” value does the source give for `COc1cccc(-n2cc(C(=O)NCCc3ccc(C)cc3)c3ccccc3c2=O)c1` here?
Its value is inactive: -29.4%.

Which “activity, negative = inhibition” value does the source give for `CCN(CC)S(=O)(=O)c1ccc(N2CCOCC2)c(NC(=O)c2cc(=O)[nH]c3ccccc23)c1` here?
The value was inactive: -24.3%.

For `CN1CCN(S(=O)(=O)c2cccc(C(=O)Oc3ccccc3Cl)c2)CC1`, which Potency is on record?
Its Potency is inconclusive: 3.16 µM [inhibitor, single point].

With `CCC(c1nnnn1CS(=O)(=O)c1ccc(C)cc1)N1CCC(C(N)=O)CC1` (centres undefined) as the compound, how does the “activity, negative = inhibition” value read?
Its value is inactive: -8.24%.

For `CC(=O)c1ccc(N2CCN(S(=O)(=O)c3ccc4c5c3CC(=O)N5CC(C)S4)CC2)cc1` (centres undefined), which Potency is on record?
The Potency was inconclusive: 3.98 µM [inhibitor, full curve].

For `COc1cc(O)c2c(c1)OC(c1ccc(O)cc1)CC2=O` (centres undefined), which Potency is on record?
Its Potency is inconclusive: 22.4 µM [inhibitor, single point].

For `CCCCN1CC(=O)N2[C@H]3c4ccccc4OC[C@@H]3[C@H](C(=O)OCC)[C@]2(C)C1=O`, which Potency is on record?
Its Potency is inconclusive: 3.16 µM [inhibitor, single point].

Which Potency does the source give for `Cc1ccccc1/C=N/Nc1ccnc2cc(Cl)ccc12` here?
The Potency was active: 10 µM.

Which Potency does the source give for `Cc1csc(NC(=O)CCCSc2nc3ccccc3s2)n1` here?
Its Potency is inconclusive: 14.1 µM [inhibitor, partial curve, poor fit].

With `O=C(NC(=S)NCCC1=CCCCC1)c1cccnc1` as the compound, how does the Potency read?
The Potency was inconclusive: 0.112 µM [inhibitor, full curve, poor fit].

For `Cc1cc(Nc2nnnn2-c2ccccc2)n(-c2ccccc2)n1`, which “activity, negative = inhibition” value is on record?
The value was inactive: -20.2%.

For `Fc1ccc(-n2cc(-c3ccccc3)c3c(NN4CCOCC4)ncnc32)cc1`, which “activity, negative = inhibition” value is on record?
The value was inactive: -12.4%.
